The campaign covered roughly 310,000 compounds. About 14,000 (4.5%) showed an effect of 50% or more. Effects have a minus sign here. Some of the results follow.
Target: human ether-à-go-go-related gene (hERG) potassium channel (human, UniProt Q12809)
Test: primary screen, population patch clamp on CHO cells stably expressing hERG
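Further: peak tail current of the secondary pulse compared with the same well before compound.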

Sequence of human ether-à-go-go-related gene (hERG) potassium channel (Q12809 whole entry, looked up): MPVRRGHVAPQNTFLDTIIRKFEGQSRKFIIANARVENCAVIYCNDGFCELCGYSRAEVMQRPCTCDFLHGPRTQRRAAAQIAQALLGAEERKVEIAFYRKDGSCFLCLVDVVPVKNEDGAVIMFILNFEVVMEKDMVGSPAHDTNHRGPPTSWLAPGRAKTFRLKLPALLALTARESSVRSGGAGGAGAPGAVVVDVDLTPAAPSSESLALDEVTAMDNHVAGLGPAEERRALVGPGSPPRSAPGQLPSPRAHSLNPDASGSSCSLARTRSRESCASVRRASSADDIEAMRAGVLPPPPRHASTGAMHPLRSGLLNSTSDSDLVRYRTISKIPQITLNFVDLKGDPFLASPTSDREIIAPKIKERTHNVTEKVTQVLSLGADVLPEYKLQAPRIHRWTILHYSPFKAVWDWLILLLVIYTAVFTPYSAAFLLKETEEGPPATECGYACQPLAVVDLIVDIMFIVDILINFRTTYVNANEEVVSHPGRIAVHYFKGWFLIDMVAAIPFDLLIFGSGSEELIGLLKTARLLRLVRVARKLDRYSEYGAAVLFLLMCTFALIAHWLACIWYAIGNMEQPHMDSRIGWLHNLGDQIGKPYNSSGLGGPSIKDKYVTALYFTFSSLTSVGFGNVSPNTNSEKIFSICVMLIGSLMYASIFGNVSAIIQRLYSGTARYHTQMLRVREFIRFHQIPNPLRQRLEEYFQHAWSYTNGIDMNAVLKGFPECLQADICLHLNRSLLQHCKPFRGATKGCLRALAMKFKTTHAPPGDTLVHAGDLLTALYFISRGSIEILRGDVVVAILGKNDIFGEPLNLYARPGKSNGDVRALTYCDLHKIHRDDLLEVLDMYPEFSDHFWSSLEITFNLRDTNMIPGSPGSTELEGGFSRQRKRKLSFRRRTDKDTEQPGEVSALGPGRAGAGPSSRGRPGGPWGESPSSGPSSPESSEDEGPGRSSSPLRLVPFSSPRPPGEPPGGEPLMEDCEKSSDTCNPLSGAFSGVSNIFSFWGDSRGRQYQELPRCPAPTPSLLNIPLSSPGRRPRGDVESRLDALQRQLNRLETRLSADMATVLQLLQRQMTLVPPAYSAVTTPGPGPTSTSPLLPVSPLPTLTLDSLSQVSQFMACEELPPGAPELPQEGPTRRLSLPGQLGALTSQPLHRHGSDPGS

Going from `CS(=O)(=O)c1ccc(SCC(=O)NC2CCS(=O)(=O)C2)c([N+](=O)[O-])c1` (stereo not drawn) to `CCN(C(=O)COC(=O)c1cc(S(=O)(=O)N(C)C)ccc1Cl)C1CCS(=O)(=O)C1` (stereo not drawn), the “hERG current change (%, negative = inhibition) at 10uM” value rises from -6.31% to 2.92%.

Compared with `COc1ccc(CCNC(=O)COc2nsnc2N2CCOCC2)cc1OC`, `CCc1ccc(OC(=O)Cc2ccc(OC)c(S(=O)(=O)N3CCOCC3)c2)cc1` is lower in “hERG current change (%, negative = inhibition) at 10uM” value: -11.5% for the first, -13.5% for the second.

Compared with `Cc1cc(=O)oc2cc(OCC(=O)Nc3ccc(CN4CCOCC4)cc3)c(Cl)cc12`, `Cc1cc2oc(=O)cc(-c3cc4ccccc4o3)c2cc1O` is higher in “hERG current change (%, negative = inhibition) at 10uM” value: 2.5% for the first, 15.4% for the second.

Compared with `COc1ccc(Cl)cc1S(=O)(=O)N1CCC(C(=O)NC2CCCC2)CC1`, `O=C(NC1CCCCC1)C1CC(=O)N(c2ccc(Cl)cc2)C1` (stereo not drawn) is higher in “hERG current change (%, negative = inhibition) at 10uM” value: -21.2% for the first, 1.89% for the second.

Compared with `Cc1ccc(S(=O)(=O)N(CC(=O)NCc2ccc(F)cc2)C(=O)N2CCN(C)CC2)cc1`, `CC(=O)N1CCN(C(=O)c2ccc(S(=O)(=O)Nc3ccccc3F)cc2)CC1` is lower in “hERG current change (%, negative = inhibition) at 10uM” value: 7.49% for the first, 6.9% for the second.

Compared with `O=C(Nc1cccc(C(=O)O)c1)/C(=C\c1ccccc1)NC(=O)c1ccccc1`, `COC(=O)c1ccc(NC(=O)c2cc(-c3ccccn3)nc3ccccc23)cc1` is higher in “hERG current change (%, negative = inhibition) at 10uM” value: 0.645% for the first, 16.2% for the second.

Going from `O=C(CN1CCC(c2nc3ccccc3[nH]2)CC1)Nc1ccc2c(c1)OCO2` to `O=C(CN1CCN(Cc2ccccc2)CC1)Nc1cccc(Br)c1`, the “hERG current change (%, negative = inhibition) at 10uM” value rises from -53.1% to -51.7%.

First: Cc1c(C(=O)NCCN2CCOCC2)oc2ccc(S(=O)(=O)N3CCCCCC3)cc12
Second: Cc1ccc(C(=O)Nc2nc3ccccc3n2CCN2CCCC2)cc1
The “hERG current change (%, negative = inhibition) at 10uM” value of the first is higher: -17% for the first, -53.8% for the second.

First: COc1ccc(-c2cc(C#N)nc(N3CCN(C)CC3)n2)cc1
Second: CN1CCN(C2=C(Cl)C(=O)N(c3ccc(Cl)c(Cl)c3)C2=O)CC1
The “hERG current change (%, negative = inhibition) at 10uM” value of the first is lower: -42.5% for the first, 14.1% for the second.

Going from `O=C(NC1CCCC1)C(c1cccs1)N(C(=O)c1csnn1)c1ccccc1F` (stereo not drawn) to `COc1ccc(N(C(=O)CCl)C(C(=O)NCCc2ccccc2)c2cccs2)cc1Cl` (stereo not drawn), the “hERG current change (%, negative = inhibition) at 10uM” value falls from 9.21% to -3.69%.

Compared with `O=C(CCn1nnc2ccccc2c1=O)N[C@H](C(=O)O)c1ccccc1`, `O=C(CNC(=O)N1CC(=O)Nc2ccccc21)NCc1ccccc1` is higher in “hERG current change (%, negative = inhibition) at 10uM” value: 8.7% for the first, 19.6% for the second.

Going from `O=C(C1CCN(S(=O)(=O)c2ccccc2)CC1)N(CCc1ccccc1)Cc1ccco1` to `O=C(c1ccc(F)c(S(=O)(=O)N2CCOCC2)c1)N(CCc1ccccc1)Cc1ccccc1`, the “hERG current change (%, negative = inhibition) at 10uM” value falls from -18.9% to -68.3%.

First: Cc1cnn(CCC(=O)NNC(=S)NCC(C)C)c1
Second: CC(C)CNC(=O)c1ccccc1NC(=O)CN(c1ccccc1)S(=O)(=O)N(C)C
The “hERG current change (%, negative = inhibition) at 10uM” value of the first is lower: -8.49% for the first, 5.98% for the second.

Going from `COc1ccc(CNC(=O)C(=O)NCC2OCCN2S(=O)(=O)c2ccc3c(c2)OCCO3)cc1` (stereo not drawn) to `COc1ccccc1NC(=O)C(=O)NCCC1CCCCN1S(=O)(=O)c1cccs1` (stereo not drawn), the “hERG current change (%, negative = inhibition) at 10uM” value rises from -3.01% to 4.76%.

First: COc1ccc(CN(C)C(C)C(=O)NC2CCCc3ccccc32)cc1 (stereo not drawn)
Second: COc1ccc(C(=O)/C(=C\c2sccc2C)c2nc3ccccc3o2)cc1
The “hERG current change (%, negative = inhibition) at 10uM” value of the first is lower: -29.2% for the first, 11.4% for the second.

First: CCN(c1ccccc1)S(=O)(=O)c1ccc(Cl)c(NC(=O)CSc2nncs2)c1
Second: CCC(c1nnc(SCC(=O)Nc2c(F)cccc2F)n1Cc1ccccc1)N(C)C (stereo not drawn)
The “hERG current change (%, negative = inhibition) at 10uM” value of the first is lower: -24.2% for the first, 7.75% for the second.

Compared with `CN(C(=O)COC(=O)c1ccc(=O)n(Cc2ccccc2)n1)c1ccccc1`, `CC(C)CN(C(=O)COC(=O)CCc1c[nH]c2ccccc12)c1c(N)n(Cc2ccccc2)c(=O)[nH]c1=O` is higher in “hERG current change (%, negative = inhibition) at 10uM” value: -5.17% for the first, -4.57% for the second.

First: CC(C)CSc1nc2ccccc2c(=O)[nH]1
Second: CCSc1nnc(Nc2ccccc2)s1
The “hERG current change (%, negative = inhibition) at 10uM” value of the first is higher: 3.93% for the first, -2.04% for the second.

First: COc1ccc(NC(=O)CSc2nnc(Cc3cccn3C)n2-c2ccc(OC)cc2)cc1
Second: COc1ccc(NC(=O)c2cc(-c3ccco3)on2)cc1
The “hERG current change (%, negative = inhibition) at 10uM” value of the first is lower: -21.2% for the first, 11.1% for the second.

First: O=C(Cc1ncc(C(F)(F)F)cc1Cl)NCCc1ccccn1
Second: O=C(NCc1ccccn1)c1cccc(NS(=O)(=O)c2cccc(F)c2)c1
The “hERG current change (%, negative = inhibition) at 10uM” value of the first is higher: 12.3% for the first, -4.67% for the second.

First: O=C1CC(c2ccccc2)CC(=O)C1=CN1CCCC1 (stereo not drawn)
Second: O=C1C(Cl)=C(N2CCCCCC2)C(=O)N1c1ccccc1
The “hERG current change (%, negative = inhibition) at 10uM” value of the first is higher: 14.2% for the first, -1.74% for the second.

Going from `CCOC(=O)c1cccc(NS(=O)(=O)c2ccc(NC(C)=O)cc2)c1` to `Cc1ccc(C)c(NC(=O)COC(=O)c2ccc3ccccc3n2)c1`, the “hERG current change (%, negative = inhibition) at 10uM” value rises from -11.7% to -9.7%.

Going from `Cc1nc(NCCO)c(C#N)c2c1COC(C)(C)C2` to `Cc1nc(NCc2cccnc2)c2c3c(sc2n1)CC(C)CC3` (stereo not drawn), the “hERG current change (%, negative = inhibition) at 10uM” value falls from -4.18% to -25.1%.

First: COc1ccc(C(=O)OCC(=O)c2ccc[nH]2)cc1
Second: CC(C)(C)c1ccc(C(=O)NCC(=O)O)cc1
The “hERG current change (%, negative = inhibition) at 10uM” value of the first is lower: -4.92% for the first, 34.4% for the second.

Compared with `Cc1nc2sc(C(c3ccc(Cl)cc3)N3CC(C)OC(C)C3)c(O)n2n1` (stereo not drawn), `CC1CCN(c2ccccc2NC(=O)c2ccc(C#N)cc2F)CC1` is higher in “hERG current change (%, negative = inhibition) at 10uM” value: 2.69% for the first, 5.07% for the second.

First: CCCCN(C)C(=S)Nc1ccsc1C(=O)OC
Second: CC(=O)NC(CCS(C)(=O)=O)C(=O)Nc1cc(C)ccc1C (stereo not drawn)
The “hERG current change (%, negative = inhibition) at 10uM” value of the first is lower: -5.36% for the first, 1.16% for the second.

Going from `O=C(CCc1c[nH]c2ccccc12)NCCOc1ccccc1` to `O=C(NC(Cc1c[nH]c2ccccc12)C(=O)OCC(=O)c1cccc2ccccc12)c1cccs1` (stereo not drawn), the “hERG current change (%, negative = inhibition) at 10uM” value rises from -20.3% to 0.359%.

Compared with `O=C(NNC(=O)C1CCN(S(=O)(=O)c2ccc(Cl)cc2)CC1)c1ccccc1O`, `CC1CCCN(C(=O)c2ccc(S(=O)(=O)N3CCC(c4nc5ccccc5s4)CC3)cc2)C1` (stereo not drawn) is lower in “hERG current change (%, negative = inhibition) at 10uM” value: -2.13% for the first, -6.75% for the second.

Going from `O=C(CN1N=C(c2ccccc2)CCC1=O)NCc1ccco1` to `Cc1cc(C)cc(N(C(=O)c2sc(C)nc2C)C(C(=O)NCc2ccco2)c2ccccc2)c1` (stereo not drawn), the “hERG current change (%, negative = inhibition) at 10uM” value rises from 0.243% to 15.4%.

First: Cc1cc2ncn(-c3ncccc3[N+](=O)[O-])c2cc1C
Second: COC(CNC(=O)c1ccc2c(c1)ncn2-c1ccc(F)c(F)c1)OC
The “hERG current change (%, negative = inhibition) at 10uM” value of the first is higher: -0.529% for the first, -8.37% for the second.

First: COC(=O)C1=C(C)NC(=O)/C1=C\c1cc(C)n(-c2cccc(C)c2)c1C
Second: COc1ccccc1NC(=O)C1=C(C)NC(=O)NC1c1cc(C)cs1 (stereo not drawn)
The “hERG current change (%, negative = inhibition) at 10uM” value of the first is higher: -1.25% for the first, -1.44% for the second.

First: CCc1nc2ccccc2c(C(=O)Oc2cccc3cccnc23)c1C
Second: CCc1cccc2c(C#N)cn(CCOc3ccccc3OC)c12
The “hERG current change (%, negative = inhibition) at 10uM” value of the first is higher: 3.71% for the first, 0.955% for the second.

Going from `C=CCNC(=O)NC(=O)CSc1nc2cc([N+](=O)[O-])ccc2n1-c1cccc(C(F)(F)F)c1` to `COc1cc2c(cc1OC)CN(CC(=O)Nc1cccc(C(F)(F)F)c1)CC2`, the “hERG current change (%, negative = inhibition) at 10uM” value falls from 20.8% to 5.01%.

First: CCC(=O)N1CCc2cc(Br)cc(S(=O)(=O)NCCCN(C)Cc3ccccc3)c21
Second: O=C(NCc1cccnc1)/C(=C\c1ccc(-c2ccc(Br)cc2)o1)S(=O)(=O)c1ccccc1
The “hERG current change (%, negative = inhibition) at 10uM” value of the first is lower: -23.8% for the first, -16.5% for the second.

Compared with `Cc1ccccc1-n1c(=S)[nH]c2nc3c(cc2c1=O)CCCC3`, `Cc1ccc2c(c1)COc1c3ccc(C(=O)NCC4CC4)cc3nn1-2` is lower in “hERG current change (%, negative = inhibition) at 10uM” value: 17.8% for the first, -6.56% for the second.

Compared with `Nc1ncnc2c1ncn2[C@H]1C[C@H](O)[C@@H](COP(=O)(O)O)O1`, `O=C(COc1ccc(Cl)cc1Cl)NN1C(=O)C2C3C=CC(C3)C2C1=O` (stereo not drawn) is lower in “hERG current change (%, negative = inhibition) at 10uM” value: 12% for the first, -0.38% for the second.

Going from `O=C(Nc1cccc([N+](=O)[O-])c1)C1C2CCCCC21` (stereo not drawn) to `COc1cccc(OCC(=O)NC2CCCCC2)c1`, the “hERG current change (%, negative = inhibition) at 10uM” value falls from 21% to 1.37%.

Compared with `CC(=O)Oc1c(S(=O)(=O)c2ccc(C)cc2)c(C)nn1C(C)(C)C`, `Cc1ccc2nc3c(c(C(=O)OCC(=O)N(C)C4CCS(=O)(=O)C4)c2c1)CCCC3` (stereo not drawn) is lower in “hERG current change (%, negative = inhibition) at 10uM” value: -7.78% for the first, -19.6% for the second.

Going from `Cn1c(C(=O)NCc2cccnc2)cc2sc(Cl)cc21` to `CCCCn1c(SCC(=O)Nc2cc(C)on2)nnc1-c1cccnc1`, the “hERG current change (%, negative = inhibition) at 10uM” value rises from -43.9% to 4.64%.

First: CN(C)c1ccc(-c2nc3n(n2)C(c2cccnc2)C2=C(CC(C)(C)CC2=O)N3)cc1 (stereo not drawn)
Second: CN(C)C(CNC(=O)c1cccnc1Sc1ccccc1)c1ccco1 (stereo not drawn)
The “hERG current change (%, negative = inhibition) at 10uM” value of the first is lower: -10.2% for the first, -0.564% for the second.

Compared with `CN1C(C(=O)Nc2ncccn2)=C(O)c2ccccc2S1(=O)=O`, `O=C(Nc1nccs1)Oc1ccccc1` is lower in “hERG current change (%, negative = inhibition) at 10uM” value: 8.31% for the first, -7.32% for the second.

First: CCCc1nn(-c2cc(Cl)ccc2OC)c2c1C(=O)CCC2
Second: O=C1CCCc2oc3ccc(O)cc3c21
The “hERG current change (%, negative = inhibition) at 10uM” value of the first is lower: -7.96% for the first, 6.83% for the second.

Compared with `COC(=O)[C@@H](N)CS.Cl`, `C=CCN1C(=O)NC(=O)/C(=C/c2cccn2C)C1=O` is lower in “hERG current change (%, negative = inhibition) at 10uM” value: 23.1% for the first, 0.367% for the second.

For `Nc1nnnn1/N=C/c1cc(Br)ccc1O`, the “hERG current change (%, negative = inhibition) at 10uM” value was 15.2%.

— PMC4336329 (PLoS ONE, 2015)
